Experimental data: the supplement of paper PMC7125110
± gives the standard error. Variants at the background level are over-represented here.

B1: glmS ribozyme (parent)
chain: AUAAAAGCGCCAGAACUACAGAAAUGUAGUUGACGAGGAGGAGGUUUAUCGAAUUUUCGGCGGAUGCCUCCAAA

Experiments:
Details in all cases: with glucosamine-6-phosphate
[1] = variants of: B1; experiment: self-cleavage kobs at 40 uM GlcN6P; higher = faster cleavage; RNA array
How it was run: (§1)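 Barcoded ribozyme variants, transcribed in situ by E. coli RNA polymerase on sequenced MiSeq chips, were followed via a hybridised Cy3 probe at 37 °C. Glucosamine-6-phosphate ranged from 40 μM to 10 mM in HEPES/KCl/Mg(OAc)2 buffer. kobs came from decay fits to per-tile medians, and kcat and KM from weighted Michaelis–Menten fits.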

[2] = variants of: B1; experiment: self-cleavage kobs at 160 uM GlcN6P; higher = faster cleavage; RNA array
How it was run: as §1

[3] = variants of: B1; experiment: self-cleavage kobs at 2500 uM GlcN6P; higher = faster cleavage; RNA array
How it was run: as §1

[4] = variants of: B1; experiment: self-cleavage kobs at 10000 uM GlcN6P; higher = faster cleavage; RNA array
How it was run: as §1

[5] = variants of: B1; experiment: self-cleavage kobs at 640 uM GlcN6P; higher = faster cleavage; RNA array
How it was run: as §1

[6] = variants of: B1; experiment: kcat; higher = faster cleavage; RNA array
How it was run: as §1

Variant: A6U C67U C70G
- self-cleavage kobs at 40 uM GlcN6P [1]: < 1e-05 s⁻¹

Variant: C8G G44U
- self-cleavage kobs at 40 uM GlcN6P [1]: < 1e-05 s⁻¹
- self-cleavage kobs at 160 uM GlcN6P [2]: < 1e-05 s⁻¹
- self-cleavage kobs at 2500 uM GlcN6P [3]: < 1e-05 s⁻¹
- self-cleavage kobs at 10000 uM GlcN6P [4]: < 1e-05 s⁻¹

Variant: C8A A12G C16U C58G G59U
- self-cleavage kobs at 40 uM GlcN6P [1]: < 1e-05 s⁻¹
- self-cleavage kobs at 640 uM GlcN6P [5]: < 1e-05 s⁻¹

Variant: C8G G9C U55A
- self-cleavage kobs at 40 uM GlcN6P [1]: < 1e-05 s⁻¹
- self-cleavage kobs at 640 uM GlcN6P [5]: < 1e-05 s⁻¹
- self-cleavage kobs at 2500 uM GlcN6P [3]: < 1e-05 s⁻¹
- self-cleavage kobs at 10000 uM GlcN6P [4]: < 1e-05 s⁻¹

Variant: C34U A42U
- kcat [6]: < 1e-05 s⁻¹
- self-cleavage kobs at 40 uM GlcN6P [1]: < 1e-05 s⁻¹
- self-cleavage kobs at 640 uM GlcN6P [5]: < 1e-05 s⁻¹
- self-cleavage kobs at 160 uM GlcN6P [2]: < 1e-05 s⁻¹
- self-cleavage kobs at 2500 uM GlcN6P [3]: < 1e-05 s⁻¹

Variant: A6G G29C A64U C67U
- self-cleavage kobs at 40 uM GlcN6P [1]: < 1e-05 s⁻¹
- self-cleavage kobs at 10000 uM GlcN6P [4]: < 1e-05 s⁻¹

Variant: C11G C61A
- kcat [6]: < 1e-05 s⁻¹
- self-cleavage kobs at 40 uM GlcN6P [1]: < 1e-05 s⁻¹

Variant: G9A G32U A52U G66C
- self-cleavage kobs at 40 uM GlcN6P [1]: < 1e-05 s⁻¹

Variant: G7A C11G
- self-cleavage kobs at 40 uM GlcN6P [1]: < 1e-05 s⁻¹
- self-cleavage kobs at 10000 uM GlcN6P [4]: < 1e-05 s⁻¹

Variant: C10G G43C
- self-cleavage kobs at 40 uM GlcN6P [1]: < 1e-05 s⁻¹
- self-cleavage kobs at 640 uM GlcN6P [5]: < 1e-05 s⁻¹
- self-cleavage kobs at 160 uM GlcN6P [2]: < 1e-05 s⁻¹
- self-cleavage kobs at 10000 uM GlcN6P [4]: < 1e-05 s⁻¹

Variant: A6U U47G G62C U65A C68U
- self-cleavage kobs at 40 uM GlcN6P [1]: < 1e-05 s⁻¹

Variant: G37A A52C
- kcat [6]: < 1e-05 s⁻¹
- self-cleavage kobs at 160 uM GlcN6P [2]: < 1e-05 s⁻¹

Variant: A6U A64U
- self-cleavage kobs at 40 uM GlcN6P [1]: < 1e-05 s⁻¹
- self-cleavage kobs at 160 uM GlcN6P [2]: < 1e-05 s⁻¹
- self-cleavage kobs at 2500 uM GlcN6P [3]: < 1e-05 s⁻¹
- self-cleavage kobs at 10000 uM GlcN6P [4]: < 1e-05 s⁻¹

Variant: A6G G29A
- self-cleavage kobs at 40 uM GlcN6P [1]: < 1e-05 s⁻¹

Variant: C16G A64U C70U
- kcat [6]: < 1e-05 s⁻¹
- self-cleavage kobs at 40 uM GlcN6P [1]: < 1e-05 s⁻¹
- self-cleavage kobs at 640 uM GlcN6P [5]: < 1e-05 s⁻¹

Variant: C8U A39C A53U U55A G59A U65C
- self-cleavage kobs at 40 uM GlcN6P [1]: < 1e-05 s⁻¹
- self-cleavage kobs at 2500 uM GlcN6P [3]: < 1e-05 s⁻¹
- self-cleavage kobs at 10000 uM GlcN6P [4]: < 1e-05 s⁻¹

Variant: C10A C70G
- self-cleavage kobs at 40 uM GlcN6P [1]: 2.53e-05 ± 1e-05 s⁻¹
- self-cleavage kobs at 640 uM GlcN6P [5]: 0.000116 ± 1.8e-05 s⁻¹

Variant: C8A U55G
- self-cleavage kobs at 40 uM GlcN6P [1]: < 1e-05 s⁻¹
- self-cleavage kobs at 640 uM GlcN6P [5]: < 1e-05 s⁻¹
- self-cleavage kobs at 2500 uM GlcN6P [3]: < 1e-05 s⁻¹
- self-cleavage kobs at 10000 uM GlcN6P [4]: < 1e-05 s⁻¹

Variant: G13A A42C
- kcat [6]: < 1e-05 s⁻¹
- self-cleavage kobs at 40 uM GlcN6P [1]: < 1e-05 s⁻¹
- self-cleavage kobs at 640 uM GlcN6P [5]: < 1e-05 s⁻¹
- self-cleavage kobs at 160 uM GlcN6P [2]: < 1e-05 s⁻¹
- self-cleavage kobs at 10000 uM GlcN6P [4]: < 1e-05 s⁻¹

Variant: G9A A12C G43A G63U
- self-cleavage kobs at 40 uM GlcN6P [1]: < 1e-05 s⁻¹

Variant: A6G C16A A39C U46A
- self-cleavage kobs at 40 uM GlcN6P [1]: < 1e-05 s⁻¹
- self-cleavage kobs at 10000 uM GlcN6P [4]: < 1e-05 s⁻¹

Variant: G7U A48G C50G
- kcat [6]: < 1e-05 s⁻¹
- self-cleavage kobs at 160 uM GlcN6P [2]: < 1e-05 s⁻¹

Variant: A6U G13A
- kcat [6]: < 1e-05 s⁻¹
- self-cleavage kobs at 640 uM GlcN6P [5]: < 1e-05 s⁻¹

Variant: A6U A39U C70U
- self-cleavage kobs at 40 uM GlcN6P [1]: < 1e-05 s⁻¹
- self-cleavage kobs at 160 uM GlcN6P [2]: < 1e-05 s⁻¹

Variant: G38C U45G
- kcat [6]: < 1e-05 s⁻¹
- self-cleavage kobs at 160 uM GlcN6P [2]: < 1e-05 s⁻¹

Variant: G38C U45C
- kcat [6]: < 1e-05 s⁻¹
- self-cleavage kobs at 160 uM GlcN6P [2]: < 1e-05 s⁻¹

Variant: G9C C61A
- self-cleavage kobs at 40 uM GlcN6P [1]: < 1e-05 s⁻¹
- self-cleavage kobs at 640 uM GlcN6P [5]: < 1e-05 s⁻¹
- self-cleavage kobs at 160 uM GlcN6P [2]: < 1e-05 s⁻¹
- self-cleavage kobs at 2500 uM GlcN6P [3]: < 1e-05 s⁻¹
- self-cleavage kobs at 10000 uM GlcN6P [4]: < 1e-05 s⁻¹

Variant: C8A A12U U57A
- self-cleavage kobs at 40 uM GlcN6P [1]: < 1e-05 s⁻¹
- self-cleavage kobs at 10000 uM GlcN6P [4]: < 1e-05 s⁻¹

Variant: G9A U55C C71A
- self-cleavage kobs at 40 uM GlcN6P [1]: < 1e-05 s⁻¹

Variant: A39C C50U
- kcat [6]: < 1e-05 s⁻¹
- self-cleavage kobs at 40 uM GlcN6P [1]: < 1e-05 s⁻¹
- self-cleavage kobs at 640 uM GlcN6P [5]: < 1e-05 s⁻¹
- self-cleavage kobs at 160 uM GlcN6P [2]: < 1e-05 s⁻¹

Variant: G7C A33C
- self-cleavage kobs at 40 uM GlcN6P [1]: < 1e-05 s⁻¹
- self-cleavage kobs at 640 uM GlcN6P [5]: < 1e-05 s⁻¹
- self-cleavage kobs at 2500 uM GlcN6P [3]: < 1e-05 s⁻¹
- self-cleavage kobs at 10000 uM GlcN6P [4]: < 1e-05 s⁻¹

Variant: G9U A42G U47A
- self-cleavage kobs at 40 uM GlcN6P [1]: < 1e-05 s⁻¹
- self-cleavage kobs at 640 uM GlcN6P [5]: < 1e-05 s⁻¹
- self-cleavage kobs at 2500 uM GlcN6P [3]: < 1e-05 s⁻¹

Variant: C16G G37C
- kcat [6]: < 1e-05 s⁻¹
- self-cleavage kobs at 40 uM GlcN6P [1]: < 1e-05 s⁻¹

Variant: A6U G35U
- self-cleavage kobs at 40 uM GlcN6P [1]: < 1e-05 s⁻¹

Variant: G7U A33U A64G C70G
- self-cleavage kobs at 40 uM GlcN6P [1]: < 1e-05 s⁻¹

Variant: C11G A36C
- kcat [6]: < 1e-05 s⁻¹
- self-cleavage kobs at 40 uM GlcN6P [1]: < 1e-05 s⁻¹
- self-cleavage kobs at 10000 uM GlcN6P [4]: < 1e-05 s⁻¹

Variant: C8U G37C A42G U57A C58A C68U C71A
- kcat [6]: < 1e-05 s⁻¹
- self-cleavage kobs at 2500 uM GlcN6P [3]: < 1e-05 s⁻¹

Variant: C16U U45A G59U C68U
- kcat [6]: < 1e-05 s⁻¹
- self-cleavage kobs at 40 uM GlcN6P [1]: < 1e-05 s⁻¹

Variant: G7A C10G A12C G32U U69C
- self-cleavage kobs at 40 uM GlcN6P [1]: < 1e-05 s⁻¹
- self-cleavage kobs at 10000 uM GlcN6P [4]: < 1e-05 s⁻¹

Variant: G38U A39C
- kcat [6]: < 1e-05 s⁻¹
- self-cleavage kobs at 640 uM GlcN6P [5]: < 1e-05 s⁻¹
- self-cleavage kobs at 160 uM GlcN6P [2]: < 1e-05 s⁻¹

Variant: A6C A48C C68U
- self-cleavage kobs at 40 uM GlcN6P [1]: < 1e-05 s⁻¹
- self-cleavage kobs at 10000 uM GlcN6P [4]: < 1e-05 s⁻¹

Variant: G51U G66C
- kcat [6]: < 1e-05 s⁻¹
- self-cleavage kobs at 2500 uM GlcN6P [3]: < 1e-05 s⁻¹
- self-cleavage kobs at 10000 uM GlcN6P [4]: < 1e-05 s⁻¹

Variant: A6G C11A
- self-cleavage kobs at 40 uM GlcN6P [1]: < 1e-05 s⁻¹
- self-cleavage kobs at 160 uM GlcN6P [2]: < 1e-05 s⁻¹

Variant: A6U U57C
- self-cleavage kobs at 40 uM GlcN6P [1]: < 1e-05 s⁻¹
- self-cleavage kobs at 10000 uM GlcN6P [4]: < 1e-05 s⁻¹

Variant: G9C G37U G59C
- self-cleavage kobs at 40 uM GlcN6P [1]: < 1e-05 s⁻¹

Variant: A33G U49C
- kcat [6]: < 1e-05 s⁻¹
- self-cleavage kobs at 2500 uM GlcN6P [3]: < 1e-05 s⁻¹

Variant: G7A G37C G51C U55C C70A
- self-cleavage kobs at 40 uM GlcN6P [1]: < 1e-05 s⁻¹
- self-cleavage kobs at 10000 uM GlcN6P [4]: < 1e-05 s⁻¹

Variant: A6G G9U C10A C11A A36U G51C
- self-cleavage kobs at 40 uM GlcN6P [1]: < 1e-05 s⁻¹
- self-cleavage kobs at 2500 uM GlcN6P [3]: < 1e-05 s⁻¹
- self-cleavage kobs at 10000 uM GlcN6P [4]: < 1e-05 s⁻¹

Variant: C10A G29C U30C A39C
- self-cleavage kobs at 40 uM GlcN6P [1]: < 1e-05 s⁻¹
- self-cleavage kobs at 10000 uM GlcN6P [4]: < 1e-05 s⁻¹

Variant: A6C C8U A14G
- self-cleavage kobs at 40 uM GlcN6P [1]: < 1e-05 s⁻¹

Variant: G9A U30G
- self-cleavage kobs at 40 uM GlcN6P [1]: < 1e-05 s⁻¹
- self-cleavage kobs at 640 uM GlcN6P [5]: < 1e-05 s⁻¹

Variant: C8U A64G
- self-cleavage kobs at 40 uM GlcN6P [1]: < 1e-05 s⁻¹
- self-cleavage kobs at 640 uM GlcN6P [5]: < 1e-05 s⁻¹
- self-cleavage kobs at 160 uM GlcN6P [2]: < 1e-05 s⁻¹
- self-cleavage kobs at 2500 uM GlcN6P [3]: < 1e-05 s⁻¹

Variant: G7A C34A C71U
- self-cleavage kobs at 40 uM GlcN6P [1]: < 1e-05 s⁻¹
